From the supplement of paper PMC4723716 come the findings set out here.

± gives the uncertainty stated by the source. Over roughly 9,900 compounds, “viability index relative to DMSO control” has its median near 1; the lowest 2% begin near 0.85. The list shows a part of the results.

The assay relates to Plasmodium falciparum NF54 stage V gametocytes. The assay can be described thus: viability index relative to DMSO control (fraction); higher = less gametocyte killing. The conditions noted are these: 2.5 µM, library set: Broad Institute DOS, incubation time: 72 h. Summed up:
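Gametocytes (P. falciparum NF54, stage V) were treated with compound at 2.5 µM for 72 hr at 37°C in low oxygen, in serum-free medium at 0.75% gametocytemia and 1.25% hematocrit. Counts of 20–70 µm2 red particles, taken from one field per well after MitoTracker Red CMXRos with saponin, were divided by the plate mean of solvent-only wells. This ratio is the viability index.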
In turn, `COCCNC[C@H]1[C@@H](c2ccccc2)[C@@H](CO)N1c1nc(C)c(C)s1` showed a viability index of 0.994 ± 0.079.
With `CO[C@H]1CC[C@@H]2CCOc3c(C#N)cccc3C(=O)N(C)C[C@@H](c3ccccc3)CC(=O)N(C)C[C@H]1O2`, the viability index turned out to be 0.997 ± 0.09.
Consider `CNC[C@@H]1Oc2ccc(NC(=O)NC3CCCCC3)cc2CC(=O)N([C@H](C)CO)C[C@H]1C`, for which the viability index was 0.978 ± 0.032.
`CN1C[C@@H](O)COC[C@@H]2O[C@@H](CC(=O)NC3CCCC3)CC[C@H]21` registered a viability index of 1.1 ± 0.02.
`COc1cccc(NC(=O)N[C@H]2C=C[C@H](CC(=O)NCc3ccncn3)O[C@H]2CO)c1`: the viability index turned out to be 1.128 ± 0.0057.
In turn, `COc1ccc2c3c([nH]c2c1)[C@H](CO)NC[C@]31CCN(CC1)C(=O)Nc1ccccc1F` came in with a viability index of 1.001 ± 0.0047.
Take `CCC(=O)N1CC[C@@H]2[C@@H](CO)N(C)c3ccc(-c4ccc(C#N)cc4)cc3[C@@H]21`: the viability index stood at 1.15 ± 0.039.
Compound `O=C(C[C@@H]1CC[C@H]2[C@@H](COC[C@H](O)CN2Cc2ccc(Oc3ccccc3)cc2)O1)N1CCN(c2ccccc2)CC1` registered a viability index of 1.06 ± 0.024.
Consider `O=C([C@@H]1[C@@H](CO)[C@@H]2Cn3c(cccc3=O)[C@H]1N2Cc1cocn1)N1CCCCC1`, for which the viability index amounted to 0.937 ± 0.041.
Consider `N#Cc1ccc(-c2ccc3c(c2)[C@@H]2[C@@H](CCN2C(=O)C2CCCCC2)[C@@H](CO)N3)cc1`, for which the viability index turned out to be 1.1 ± 0.024.
In the case of `CO[C@@H](CN(C)Cc1ccc2c(c1)OCO2)[C@@H](C)CN(C(=O)Nc1ccc(F)cc1)[C@@H](C)CO`, the viability index was determined as 1.03 ± 0.019.
As to `COc1ccc2c3c([C@@H](CO)N(C[C@]33CN(C3)C(=O)c3cccc(F)c3)C(=O)c3cccc(F)c3)n(C)c2c1`, the viability index came out at 0.848 ± 0.02.
With `CCN(C[C@H]1[C@H](c2ccccc2)[C@@H](CO)N1S(C)(=O)=O)C(=O)C1CCCC1`, the viability index is 1.07 ± 0.035.
Turning to `CN1C(=O)c2cc(NC(=O)NCc3ccccc3)ccc2OC[C@@H]2O[C@H](CC(=O)NCC3CCCCC3)CC[C@@H]21`, the viability index is 1.02 ± 0.039.
Next, `Cc1ccc(S(=O)(=O)N(C)C[C@@H]2OCCCC[C@@H](C)Oc3ccc(NC(=O)c4ccncc4)cc3C(=O)N([C@H](C)CO)C[C@@H]2C)cc1`: 1.12 ± 0.033; `CN1C(=O)c2cc(NC(=O)Cc3cccs3)ccc2OC[C@@H]2O[C@@H](CC(=O)N[C@@H]3CCN(Cc4ccccc4)C3)CC[C@H]21`: 1.12 ± 0.15; `COc1ccc2c3c([C@H](CO)N(CC4CC4)C[C@]33CN(Cc4ccc(F)cc4)C3)n(C)c2c1`: 0.978 ± 0.043.
Regarding `C[C@@H]1CN([C@@H](C)CO)C(=O)c2ccccc2-c2ccccc2CO[C@H]1CN(C)S(=O)(=O)c1cccc(C#N)c1`, the viability index amounted to 1.01 ± 0.11.
`CNC[C@H]1OCCCC[C@@H](C)Oc2ccc(NC(=O)Nc3ccc(OC)cc3)cc2C(=O)N([C@H](C)CO)C[C@H]1C` yielded a viability index of 1.05 ± 0.012.
The compound `CC(C)[C@H]1COCc2cnnn2CCC[C@@H](C)C(=O)N1` displayed a viability index of 1.092 ± 0.0059.
On to `O=C(NC1CCCC1)N1CC(=O)N2[C@H](CO)[C@H](c3ccc(C4=CCCCC4)cc3)[C@@H]2C1`, for which the viability index amounted to 0.986 ± 0.045.
Consider `O=C(NCC[C@H]1CC[C@H](NC(=O)C2CCOCC2)[C@@H](CO)O1)c1cc(Cl)cc(Cl)c1`, for which the viability index was found to be 0.973 ± 0.12.
As for `C/C=C/c1ccc([C@H]2[C@@H](CO)N[C@@H]2CN(Cc2cccnc2)C(=O)C2CC2)cc1`, the viability index is 1 ± 0.037.
On to `Cc1ccc(OC(=O)N(C)C[C@H]2OCc3ccccc3-c3ccccc3C(=O)N([C@@H](C)CO)C[C@H]2C)cc1`, for which the viability index is 0.92 ± 0.1.
Turning to `CC(C)(C)S(=O)N1Cc2cc(C(=O)NCc3ccc4c(c3)OCO4)nc(-c3cccc(-c4cc5ccccc5o4)c3)c2[C@H]1CCO` (some centres not stated), the viability index was 0.656 ± 0.04.
Compound `Cn1cnc(S(=O)(=O)N2[C@@H]3CNC[C@H]2[C@H]3c2ccc(/C=C/c3ccccc3)cc2)c1` gave a viability index of 1.05 ± 0.014.
In the case of `O=C(c1ccc2c(c1)OCO2)N1C[C@H]2[C@@H](c3ccccc31)[C@@H](CO)N2Cc1cccnc1`, the viability index came to 1.06 ± 0.03.
Compound `Cc1ccccc1S(=O)(=O)N1C[C@@H]2N[C@H](C1)[C@@H]2c1ccc(-c2cccc(C#N)c2)cc1` came in with a viability index of 0.903 ± 0.018.
`CCS(=O)(=O)N1C[C@@]2(C1)CN([C@H](CO)c1c2c2ccc(OC)cc2n1C)C(=O)c1ccc(F)cc1`: the viability index stood at 1.02 ± 0.03.
Consider `COc1cccc(NC(=O)N2CC(=O)N3[C@H](CO)[C@H](c4ccc(C5=CCCCC5)cc4)[C@@H]3C2)c1`, for which the viability index turned out to be 1.06 ± 0.052.
Turning to `COCC(=O)N1[C@@H]2c3ccc(/C=C/c4ccccc4)c(=O)n3C[C@H]1[C@H](CO)[C@H]2C(=O)N1CCOCC1`, the viability index was found to be 1.1 ± 0.028.
In turn, `C[C@@H]1CCc2cnnn2COC[C@@H](c2ccccc2)NC1=O` yielded a viability index of 1.058 ± 0.0089.
Take `CCCNC(=O)N1C[C@@]2(C1)CN([C@H](CO)c1[nH]c3cc(OC)ccc3c21)C(=O)Nc1ccc(F)cc1`: the viability index was 0.951 ± 0.052.
`CCc1csc(N2[C@H](CO)[C@H](c3ccccc3)[C@@H]2CNC)n1`: the viability index worked out at 0.372 ± 0.18.
In the case of `CC(=O)N1[C@H](CO)[C@H](c2ccccc2)[C@@H]1CN(C(=O)c1ccccc1F)C(C)C` it was 1.06 ± 0.06; in that of `N#Cc1ccc(-c2ccc([C@@H]3[C@@H]4CN(S(=O)(=O)Cc5ccccc5)C[C@H]3N4)cc2)cc1`, 0.976 ± 0.037; in that of `CCCC#Cc1cnc2c(c1)C(=O)N([C@H](C)CO)C[C@H](C)[C@@H](CN(C)C(=O)Nc1cc(F)ccc1F)O2`, 0.995 ± 0.089.
`C[C@@H]1CN([C@H](C)CO)C(=O)Cc2cc(NC(=O)Cn3cnnn3)ccc2O[C@H]1CN(C)S(=O)(=O)c1ccc(Cl)cc1` displayed a viability index of 1 ± 0.17.
Regarding `COc1ccc(-c2ccc([C@H]3[C@@H]4CN(S(=O)(=O)c5ccccc5C)C[C@H]3N4)cc2)cc1`, the viability index came out at 0.916 ± 0.068.
`O=C1C[C@@H](c2ccccc2)C(=O)N[C@H](c2ccc(F)cc2)C/C=C\CCN1` displayed a viability index of 1.083 ± 0.01.
`C/C=C/c1ccccc1[C@H]1[C@@H](CO)N(C(=O)CN2CCOCC2)[C@H]1C#N`: the viability index worked out at 1.07 ± 0.12.
In turn, `C[C@@H]1CN([C@H](C)CO)C(=O)CCCn2nncc2CO[C@H]1CN(C)S(=O)(=O)c1ccc2c(c1)OCCCO2` returned a viability index of 1.08 ± 0.061.
`O=S(=O)(c1cccc(F)c1)N1CC[C@H]2[C@H](CO)Nc3ccc(Br)cc3[C@H]21` came in with a viability index of 1.11 ± 0.032.
`NCC[C@H]1CC[C@H](NC(=O)Cc2ccncc2)[C@@H](CO)O1` yielded a viability index of 1.12 ± 0.035.
The compound `CCS(=O)(=O)Nc1ccc2c(c1)C(=O)N(C)[C@H]1CC[C@@H](CC(=O)N[C@@H]3CCN(Cc4ccccc4)C3)O[C@@H]1CO2` displayed a viability index of 1.15 ± 0.088.
Turning to `COc1ccccc1-c1ccccc1[C@@H]1[C@H](C#N)N(C(=O)CN(C)C)[C@H]1CO`, the viability index was determined as 1.16 ± 0.051.
Next, `CO[C@H]1CN(C)C(=O)c2cc(NC(=O)CC(F)(F)F)ccc2OC[C@@H](C)N(CC2CC2)C[C@H]1C`: 0.999 ± 0.05.
